According to the supplement of paper PMC12632987:
Whole data set: some 1,800 sequences, median “median log2 fold change of GCK-ALFA target abundance (FLAG IP / Myc IP barcode read proportion)” near 0.14, cut for the lowest 2% near -0.84. Some of the results follow.

T1: TRAF2, Q12933
T1 chain: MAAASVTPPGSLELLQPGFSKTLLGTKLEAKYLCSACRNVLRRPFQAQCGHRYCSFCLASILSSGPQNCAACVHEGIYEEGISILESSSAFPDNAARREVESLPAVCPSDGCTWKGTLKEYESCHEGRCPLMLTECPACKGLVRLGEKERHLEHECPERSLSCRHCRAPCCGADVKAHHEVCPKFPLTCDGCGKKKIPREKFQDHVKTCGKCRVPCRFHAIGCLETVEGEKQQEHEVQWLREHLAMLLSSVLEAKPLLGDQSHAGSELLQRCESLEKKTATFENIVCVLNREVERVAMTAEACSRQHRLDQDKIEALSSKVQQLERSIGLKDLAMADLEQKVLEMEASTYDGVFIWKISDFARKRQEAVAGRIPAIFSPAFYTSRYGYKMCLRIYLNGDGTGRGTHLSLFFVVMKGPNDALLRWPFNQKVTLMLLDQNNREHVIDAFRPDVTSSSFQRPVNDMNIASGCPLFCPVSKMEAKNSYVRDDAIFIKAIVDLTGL

B1: traf2_out_17_162_1517 (protein)
chain: SALEEELKKLKEELEKLKKKLKELKEKLEKLKEMSKEELTDLLVEASEARREALELAERLRELKPEIGEEEAEKLIEEAEKIAEELNKIANKIYKELEKK
B2: traf2_out_18_167_1824 (protein)
chain: EEELKKRIEELTDELVRLSEVRRTARAALEAAATDPAAVPAALAATIAALRKVPEFRAAADRLEAAPEADLPALLEEVAAEAQRRANEVYKEREEALKKL
B3: traf2_out_11_155_725 (protein)
chain: DAAREAQNRIVDHNLEVGDRLLATVDAVIAAVAARDPAVAAALRATVARHRRFSATSAARAAIDLLRAAGLDAEAAALEAALAAAQREKSEFIKEVEAEL
B4: traf2_out_18_167_1883 (protein)
chain: EEELRRELEEATDRLVELSEIRRHLLLILEALEESREAARAALEAALAENPDSAVLKEAAEVFATKSDEEFRAFLEAKAEELQREANEAYERIEELRKLL
B5: traf2_out_18_167_1837 (protein)
chain: EEEIRKRREELSDRLVELSALKREARRALHALDTDPSRVPEELAALEREAAKIPELAPLVAAARAALAAGDRAALRAELERLIEEANRLANEVLEEYEKL
B6: traf2_out_5_189_2323 (protein)
chain: SEKEKENEELRERAKRLSKRVNELIAEAEAAGLSLEELRERLLEEIEKLPIEDAELYSGIAYSILEGTALANGDEELLAAARELRKEARAIIAKRRAEAA
B7: traf2_out_17_178_1724 (protein)
chain: TKEEWRKKISELTDEMIDLSEEAATKLLELAEAEGTLTPEELAALREARRRGSPNDTLALGERIAPKLKSQEEANKLIEEFKKKYRELAKKIAEAYKKYE
B8: traf2_out_5_63_2350 (protein)
chain: SERDELTALAREADALVRAMLAARAAGDEERLEALLEAAVADPELARTALGILRGEARYYKLLGDRPEEAAAAAELAARLEARLAERAAAEAAAAAAAAA
B9: traf2_out_13_95_1052 (protein)
chain: SKETAEKIMEVADRAEERALALLEAAQARFADDPEAAAVLDEALRLARTRGISEAIHLLEEAQAADPAHAAEFAALIAELEAIRREAGREVAKILKEEEE
B10: traf2_out_20_38_2007 (protein)
chain: SEEEEEKKREEELIKKAQEAYDEAEARIAAMKAAGKSVAEIAAETKKEVTELLTAAGLEEEAKELVEDVDIAEKSPNAERLLVRILARAKTLVYQKELNK
B11: traf2_out_13_95_1227 (protein)
chain: SAETNEKLRQVSNDMLDRAEAVLDALEARLAPHPAVQPDMAAVRRALREQGIRAAIAQLRAAAKRHPAVAADLEAAAAELEAIRREAGRRVAEILKEEEE
B12: traf2_out_18_3_1910 (protein)
chain: SEEERKEISEKIDEIVDEATARARAALDRLAAEHPAVAARAAALRADLDAGAGPFGILDALAELFREAGDEAAAAELEEFLREKRKELQELVDKYEELLK
B13: traf2_out_8_152_2545 (protein)
chain: ELEKLKEEVRKEVTELFDEALEASADNPELKAQVETARDYVLKLIDEGKVEEALNVAIANFSYLSLLAKERGDEELAAFFEELRKKLIELRKKYSEALEK
B14: traf2_out_14_149_1244 (protein)
chain: SAEAKLYKAAAELSKKVAEALEEVLKLLDAGKVEEAKKLLEETIKELKEEGKKAGITISEIFVLEHILELLDTDVEKAKAAAKEALERAKSAAEAFESLA
B15: traf2_out_18_167_1847 (protein)
chain: EEEIRKRREELSDRLVELSEVKRAARLALQALETDPSKVPAALAALREKAASIPELQPLVDAAEAALAAGDREGLRATLEKLIEKAQKLMNEVLKEYEAL
B16: traf2_out_17_162_1540 (protein)
chain: SETEEELRRLREELEELEEELRRLEEISKNLETLSKEELTDLLVEASELRRRALELAERLRRLEEETGSEEARRLRERAEEIAERLQRIANEIYKELEKK
B17: traf2_out_20_38_2019 (protein)
chain: SEEEKEKEKLEKLIEHAQAAYDAAEAWIAALRAAGKSVAEIAAAAKERVRALLTAHGLEEEAEELVADIDRVLDSPDAERLIVRILARAETLVFQKELQK
B18: traf2_out_6_3_2516 (protein)
chain: MEESIRKDAETVLENMGITTAEQLKRLVKAEVNAVKKLVSRKDVDEADLAGAESVLNLTRAMVEVAYEKLPDLTEEQKKEMLALIKEAEELVKKKRKELE
B19: traf2_out_11_169_857 (protein)
chain: KEEEKNRKIIEKALELNDEAKEKLKEHALALAKEAGLDVAEVEAIFEKNKNKSLSAVAAALIEWFKSQGKEDEAQAVLEKYEELKEEINKKMTEFLKELE

Target: T1, TRAF2, Q12933
Test: median log2 fold change of GCK-ALFA target abundance (FLAG IP / Myc IP barcode read proportion) (log2 ratio); each designed protein is fused to an ALFA-tag nanobody in HEK293 cells to bring the named protein to FLAG-tagged glucokinase (GCK); Myc marks an untargeted standard; higher = target protein stabilised (more abundant)
Details: target protein: 3xFLAG-MCP-GCK-ALFA reporter; HEK293 landing pad (RPLP)
How it was run: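 The readout is target abundance, the per-binder median log2 ratio of FLAG to Myc barcode read proportions. It came from HEK293 landing-pad cells carrying a recombined ALFA-nanobody-fused binder library, induced with 2 μg mL^−1 doxycycline and transfected with a plasmid for a FLAG-tagged target and a Myc-tagged standard. After 48 h, lysates were immunoprecipitated with anti-FLAG and anti-Myc, and circular RNA barcodes were reverse transcribed, amplified and sequenced. Each barcode needed a proportion of at least 10^−7 in both replicates and each binder at least 3 barcodes per replicate, a pseudocount of 10^−6 was added, and the replicates were pooled.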

How did the “median log2 fold change” value turn out when B1 was run?
Its value is 0.344.

B2 was tested. Which “median log2 fold change” value did it give?
The value was 0.338.

How did the “median log2 fold change” value turn out when B3 was run?
Its value is -0.0792.

How did the “median log2 fold change” value turn out when B4 was run?
The value was 0.266.

How did the “median log2 fold change” value turn out when B5 was run?
The value was 0.152.

B6 was tested. Which “median log2 fold change” value did it give?
The value was 0.101.

B7 was tested. Which “median log2 fold change” value did it give?
Its value is -0.000782.

With B8 as the binder, how does the “median log2 fold change” value read?
Its value is -0.369.

How did the “median log2 fold change” value turn out when B9 was run?
Its value is 0.114.

Which “median log2 fold change” value does the source give for B10 here?
The value was 0.511.

Which “median log2 fold change” value does the source give for B11 here?
Its value is 0.139.

B12 was tested. Which “median log2 fold change” value did it give?
The value was 0.203.

With B13 as the binder, how does the “median log2 fold change” value read?
The value was 0.216.

For B14, which “median log2 fold change” value is on record?
Its value is 0.249.

With B15 as the binder, how does the “median log2 fold change” value read?
The value was 0.224.

For B16, which “median log2 fold change” value is on record?
Its value is 0.402.

Which “median log2 fold change” value does the source give for B17 here?
The value was 0.0921.

With B18 as the binder, how does the “median log2 fold change” value read?
Its value is -0.56.

B19 was tested. Which “median log2 fold change” value did it give?
The value was -0.193.
